{
  "source": "patent EP4545563A1",
  "about": "“ANTIBODIES TARGETING ITGA2 AND ANTIBODY-DRUG […]” (Foreseen Technology (Beijing) Co., Ltd., priority 2022, dated 2024)",
  "molecules": {"B1": {"name": "FS002-A15-vc-MMAE: antibody-drug conjugate of antibody FS002-A15 with vc-MMAE (mc-vc-PAB-MMAE) as the linker-payload (conjugate)", "heavy": "RLQLQESGPGLVKPSQTLSLTCTVSGGSISSGGYYWSWIRQHPGKGLEWIGYIYYSGSTYYNPSLKSRVTISVDTSKNQFSLKLSSVTAADTAVYYCARATIYGYFDYWGQGTLVTVSS[human IgG1 constant region omitted here]", "light": "EIVLTQSPATLPLSPGERATLSCRASQSVGFYLAWYQQKPGQPPRLLFYDASKRATGIPARFSASGSGTDFTLTISGLEPEDFAVYYCQHRISWPLTFGQGTKVEVKRTVAAPSVFIFPPSDEQLKSGTASVVCLLNNFYPREAKVQWKVDNALQSGNSQESVTEQDSKDSTYSLSSTLTLSKADYEKHKVYACEVTHQGLSSPVTKSFNRGEC"}},
  "key": {"[1]": {"test_system": "CHO", "test": "ADC cell killing in negative control cells, Cell-Titer-Glo 2.0", "format": "cell-based, Chinese hamster", "procedure": "(§1) Human bile duct cancer cells HuCC-T1 available from Zhejiang MeisenCTCC, human epidermal cancer cells A431 available from Procell Life Science&Technology Co.,Ltd. (Wuhan) and Chinese hamster ovary cells CHO from negative control ATCC were seeded into a 96-well plate at 2500 cells/well. It was then incubated in a 5% CO2 incubator overnight at 37°C. Half of the medium was removed from the cell plate on the next day. A 2x hIgG1 (negative control antibody, provided by Biointron), Vatelizumab, FS002-A1-vc-MMAE, FS002-A15-vc-MMAE, FS002-A36-vc-MMAE, Vatelizumab-ve-MMAE, hIgG1-vcMMAE (negative control ADC, provided by ChemPartner) was prepared with a complete culture medium, and then diluted at a 3-fold gradient with 11 specific concentration points in total. Serial dilutions of the above molecules were added to the appropriate wells, and it was then incubated in a 5% CO2 incubator for 5 days at 37°C. After the incubation, 100 uL of Cell-Titer-Glo 2.0 reagent was added to the 96-well plate. It was then well mixed on a plate shaker for 2 minutes, and finally equilibrated at room temperature for 10 minutes. Readings were taken using a microplate reader. Finally, IC50 was used to compare the biological activity of the ADC against each cell line."}, "[2]": {"test_system": "HuCC-T1", "test": "ADC cancer cell killing, Cell-Titer-Glo 2.0", "format": "cell-based, human", "conditions": "result in words, summary of Table 9", "procedure": "as §1"}, "[3]": {"test_system": "A431", "test": "ADC cancer cell killing, Cell-Titer-Glo 2.0", "format": "cell-based, human", "conditions": "result in words, summary of Table 9", "procedure": "as §1"}},
  "data": [
    {"molecule": "B1", "values": [
      {"measurement": "IC50", "setting": "[1]; negative control cells CHO, incubated 5 days at 37°C", "result": "> 207", "unit": "nM"},
      {"measurement": "killing effect on negative control cells CHO", "setting": "[1]; result in words, summary of Table 9", "result": "no killing effect"},
      {"measurement": "killing effect on HuCC-T1", "setting": "[2]", "result": "good killing effect"},
      {"measurement": "killing effect on A431", "setting": "[3]", "result": "good killing effect"}
    ]}
  ]
}
